Source: PubChem BioAssay AID624417 (National Center for Advancing Translational Sciences (NCATS), 2012)
Among all 410,000 compounds or so, about 6,400 (1.6%) were called active. The shares of active, inactive and inconclusive entries below differ from those in the screen. Calls follow the shape of the dose curve; as a rule, active = well fitted inhibition curve with a large enough effect; inconclusive = small, poorly fitted or top-dose-only effect; inactive = no such curve, though single readings can be large or run the other way. Where the call is inconclusive, the potency comes from a doubtful curve fit.

Target: Glucagon-like peptide 1 receptor (Homo sapiens) (UniProt P43220)
Test: qHTS of GLP-1 Receptor Inverse Agonists (Inhibition Mode); also: nearly all actives have a fitted effect of over 55% in size
Conditions: HEK293 GLP-1R CRE-luciferase, luminescence, 24 h, GLP-1R form is constitutively active; activity change, negative = inhibition: at 38.3 µM (top of the series) unless noted
Method in brief: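 Inverse agonists were sought by their lowering of basal cAMP reporter luciferase output in HEK293 cells stably carrying constitutively active human GLP-1R, after 24 h compound treatment.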
% is scaled to controls: 0 for no effect and ±100 for the full control effect; potency is read from the fitted curve at half-maximal effect; tags tell the direction and shape of the fitted curve.

UniProt P43220, sequence (P43220 whole entry, looked up): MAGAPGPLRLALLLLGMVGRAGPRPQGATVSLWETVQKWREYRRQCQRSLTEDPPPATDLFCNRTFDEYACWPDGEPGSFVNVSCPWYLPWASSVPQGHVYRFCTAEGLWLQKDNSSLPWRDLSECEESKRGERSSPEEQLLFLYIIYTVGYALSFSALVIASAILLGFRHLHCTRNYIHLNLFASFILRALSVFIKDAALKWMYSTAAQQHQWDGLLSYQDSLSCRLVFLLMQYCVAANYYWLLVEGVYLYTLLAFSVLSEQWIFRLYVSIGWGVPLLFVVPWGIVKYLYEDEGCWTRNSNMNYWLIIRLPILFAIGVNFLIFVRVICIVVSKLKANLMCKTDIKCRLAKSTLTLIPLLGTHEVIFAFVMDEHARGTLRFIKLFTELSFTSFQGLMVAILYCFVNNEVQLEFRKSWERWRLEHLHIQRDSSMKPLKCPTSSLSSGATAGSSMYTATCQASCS

Potency, inconclusive:
Brc1ccc2[nH]c3c(c2c1)CCC3 28.2 µM [inhibitor, single point], CC(=O)Nc1ccc(S(=O)(=O)N(Cc2ccco2)Cc2cc3ccccc3[nH]c2=O)cc1 28.2 µM [inhibitor, single point], COc1ccc(C(=O)N2C=Cc3ccccc3C2C#N)cc1 (stereo not given) 25.1 µM [inhibitor, single point], C(=NOCc1ccccc1)c1ccccn1 7.94 µM [inhibitor, partial curve, poor fit], Cc1ccc2ccc3ccc(C)nc3c2n1 0.501 µM [inhibitor, full curve, poor fit], Cc1ccc(NC(=O)NCC2CCN(Cc3cc(C)ccc3Cl)CC2)c(C)c1 0.501 µM [inhibitor, full curve, poor fit], CCCCOc1ccc(C(O)C(CN2CCCCC2)c2ccccc2)cc1 (stereo not given) 10 µM [inhibitor, partial curve, poor fit], COc1ccc(Nc2nc(N)nc(CN3CCN(c4ccc(F)cc4)CC3)n2)cc1 10 µM [inhibitor, partial curve, poor fit], Cc1ccc(C(=O)NCCSc2ccc(Cl)cc2)cc1[N+](=O)[O-] 28.2 µM [inhibitor, single point], Cc1cccc(NC(=O)C(C)N2C(=O)C3C4CC(C(Br)C4Br)C3C2=O)c1 (stereo not given) 28.2 µM [inhibitor, single point], CCOc1cc(C=C(C(=O)OC)C(=O)OC)ccc1OCc1ccc([N+](=O)[O-])cc1 12.6 µM [inhibitor, partial curve, poor fit], Cc1ccc2oc(=O)cc(/C=C/c3ccccc3)c2c1 11.2 µM [inhibitor, single point], CN(c1ccc(F)cc1)S(=O)(=O)c1ccc(Cl)c(C(=O)OCC(=O)NCc2ccco2)c1 31.6 µM [inhibitor, single point], Cc1cc(-c2cn3ccccc3n2)c(C)n1-c1ccccc1 28.2 µM [inhibitor, single point], Cc1ccc(-n2ncc3c(NC(C)c4ccccc4)ncnc32)cc1 (stereo not given) 14.1 µM [inhibitor, single point], COc1ccc(OC)c(NC(=O)C2Cc3ccccc3CN2S(=O)(=O)c2ccc(F)cc2)c1 (stereo not given) 17.8 µM [inhibitor, partial curve, poor fit], O=C(NC(=S)Nc1ccc(F)cc1)c1ccc2c(c1)OCCO2 3.16 µM [inhibitor, partial curve, poor fit], COc1ccc(NS(=O)(=O)c2cc(C)ccc2NC(=O)c2cc(C)oc2C)cc1 0.316 µM [inhibitor, full curve, poor fit], O=[N+]([O-])c1cc(C(F)(F)F)ccc1NCCc1c[nH]c2ccccc12 10 µM [inhibitor, single point], O=S(=O)(c1ccc(Cl)cc1)c1nc(-c2cccs2)oc1SCc1ccc(F)cc1 22.4 µM [inhibitor, single point], O=C(Nc1ccc(Cl)cc1)NC1CCCc2ccccc21 (stereo not given) 2.24 µM [inhibitor, partial curve], Cc1ccc2[nH]cc(CCNC(=O)c3ccc([N+](=O)[O-])cc3)c2c1 11.2 µM [inhibitor, single point], COc1ccc(N/N=C(\C#N)C(=N)N2CCCCC2)cc1 11.2 µM [inhibitor, single point], Fc1cccc(Nc2ncnc3c2cnn3-c2ccccc2)c1 10 µM [inhibitor, partial curve, poor fit], COc1cccc(-c2csc(NC(=O)C3CC3)n2)c1 28.2 µM [inhibitor, single point], COc1ccc(N(C(=O)c2snc(C(N)=O)c2N)C(C(=O)NC2CCCCC2)c2ccc(C)o2)cc1 (stereo not given) 28.2 µM [inhibitor, single point], CCC(C)c1ccccc1OCCCCN1CCCC1 (stereo not given) 7.94 µM [inhibitor, partial curve, poor fit], O=C(NCc1ccncc1)c1ccccc1Nc1ccc(SC(F)F)cc1 12.6 µM [inhibitor, single point], C=CC[C@@H](Cc1ccc(F)cc1)C(=O)OC[C@@H]1CCCN1C(=O)[C@H](CC=C)CC(=O)N[C@H](CO)Cc1ccccc1 7.94 µM [inhibitor, partial curve, poor fit], O=S(=O)(NCc1ccccc1)NCc1ccc(Cl)cc1Cl 12.6 µM [inhibitor, partial curve, poor fit], CCCCn1c(-c2sccc2C)n[nH]c1=S 14.1 µM [inhibitor, single point], Fc1ccc(C(c2nnnn2Cc2ccco2)N2CCN(C3CCCCC3)CC2)cc1 (stereo not given) 10 µM [inhibitor, partial curve, poor fit]

Potency, active:
c1ccc(C(c2ccccc2)N2CCN(Cc3nnnn3C3CCCC3)CC2)cc1 7.94 µM, Cc1ccccc1OCC(=O)Nc1ccc(N2CCN(C)CC2)c(Cl)c1 4.47 µM, O=C(NCc1ccccc1)C(c1ccccc1)N(Cc1ccc2c(c1)OCO2)C(=O)Cc1cccs1 (stereo not given) 7.94 µM

Activity change, negative = inhibition, inactive:
C=CCNC(=S)Nc1ccc(C)c(S(=O)(=O)N2CCCCC2)c1 3.76% [at 7.66 µM], O=C(OCc1ccc(C(=O)c2ccccc2)cc1)c1cccc(-c2nnc(-c3ccccc3)o2)c1 8.37%, O=c1c2cc(-c3ccccc3)sc2ncn1-n1cccc1 37%, CCOc1cccc(C(=O)NC(=S)Nc2cccc(C)c2)c1 -41.3%, O=c1ccc2cc(S(=O)(=O)Nc3ccc(F)c(Cl)c3)ccc2[nH]1 13%
